Results on 87 molecules are retold here after publication PMC4336329 (PLoS ONE, 2015).

SMILES strings stand for the structures. Out of some 310,000 compounds screened, about 2,200 (0.71%) showed an effect of 50% or more. The effect is printed as a negative number. Some of the results follow.

Chain of human ether-à-go-go-related gene (hERG) potassium channel (Q12809 whole entry, looked up): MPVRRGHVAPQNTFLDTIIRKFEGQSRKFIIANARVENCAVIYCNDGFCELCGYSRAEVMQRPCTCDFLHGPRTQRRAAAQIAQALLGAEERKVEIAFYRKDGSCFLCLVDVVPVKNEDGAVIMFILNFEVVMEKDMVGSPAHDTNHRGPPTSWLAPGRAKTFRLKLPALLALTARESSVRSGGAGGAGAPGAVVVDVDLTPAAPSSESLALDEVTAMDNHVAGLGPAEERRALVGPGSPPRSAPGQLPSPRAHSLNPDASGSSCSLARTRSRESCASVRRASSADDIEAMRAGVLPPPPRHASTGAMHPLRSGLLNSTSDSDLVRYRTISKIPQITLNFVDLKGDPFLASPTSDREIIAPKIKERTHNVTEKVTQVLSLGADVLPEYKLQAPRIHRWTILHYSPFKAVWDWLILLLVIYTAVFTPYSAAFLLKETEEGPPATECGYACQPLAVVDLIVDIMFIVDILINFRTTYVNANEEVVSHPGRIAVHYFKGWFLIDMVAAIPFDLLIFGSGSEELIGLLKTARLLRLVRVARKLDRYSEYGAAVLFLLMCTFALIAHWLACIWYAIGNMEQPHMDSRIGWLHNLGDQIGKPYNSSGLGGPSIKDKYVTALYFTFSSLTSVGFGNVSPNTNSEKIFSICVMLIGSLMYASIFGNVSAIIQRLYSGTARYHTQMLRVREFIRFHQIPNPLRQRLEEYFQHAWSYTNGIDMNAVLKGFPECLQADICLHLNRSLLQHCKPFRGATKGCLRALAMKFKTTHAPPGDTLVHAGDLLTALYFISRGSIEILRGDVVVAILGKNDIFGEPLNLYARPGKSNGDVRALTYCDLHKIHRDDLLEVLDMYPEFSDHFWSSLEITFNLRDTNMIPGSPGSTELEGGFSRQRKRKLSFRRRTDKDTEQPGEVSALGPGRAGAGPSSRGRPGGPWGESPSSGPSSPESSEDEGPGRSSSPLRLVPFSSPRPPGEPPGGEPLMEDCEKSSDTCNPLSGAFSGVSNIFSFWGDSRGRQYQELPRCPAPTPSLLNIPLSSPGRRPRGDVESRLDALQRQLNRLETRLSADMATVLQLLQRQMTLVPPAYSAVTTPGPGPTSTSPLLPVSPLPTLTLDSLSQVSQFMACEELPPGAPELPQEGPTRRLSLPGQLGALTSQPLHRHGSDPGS

The assay addresses human ether-à-go-go-related gene (hERG) potassium channel (human, UniProt Q12809). The assay is described as follows: primary screen, population patch clamp on CHO cells stably expressing hERG.
For `CCN(c1ccccc1)S(=O)(=O)c1ccc2[nH]cc(C(=O)N3CCOCC3)c(=O)c2c1`, the “hERG current change (%, negative = inhibition) at 1uM” value turned out to be 8.43%.
On to `O=C(CSc1nc2c(sc3ccccc32)c(=O)n1CCO)NCc1ccco1`, for which the “hERG current change (%, negative = inhibition) at 1uM” value is -1%.
As for `COc1ccc(OC)c(/C=C/C(=O)N2CCN(S(=O)(=O)c3cc(C)ccc3C)CC2)c1`, the “hERG current change (%, negative = inhibition) at 1uM” value amounted to 10.6%.
The figure for `COc1ccccc1CNC(=O)c1ccccc1OC` is 5.69%; for `CN1CCN(c2cc(=O)n(C3CCCCC3)c(=O)[nH]2)CC1` it is 0.179%.
As for `Cc1ccccc1OCC(=O)Nc1ccc(N2CCN(C)CC2)c(Cl)c1`, the “hERG current change (%, negative = inhibition) at 1uM” value is listed as -31.8%.
For the molecule `CCN(CC(=O)NCc1ccc(Cl)cc1)S(=O)(=O)c1ccc(F)cc1`, the “hERG current change (%, negative = inhibition) at 1uM” value is 6.24%.
Regarding `Cc1cc(C)c2nc(SCC(=O)Nc3cc(C)on3)c(C#N)cc2c1`, the “hERG current change (%, negative = inhibition) at 1uM” value is recorded as 11.2%.
As for `O=C(Nc1ccc(C(=O)N2CCCCC2)cc1)c1cccc([N+](=O)[O-])c1`, the “hERG current change (%, negative = inhibition) at 1uM” value is reported as 6.73%.
Take `O=S(=O)(c1ccc(F)c(F)c1F)N1CCN(C(=S)NC2CC3CCC2C3)CC1` (stereo not drawn): the “hERG current change (%, negative = inhibition) at 1uM” value was determined as 9.35%.
As for `COc1ccc(/C=C/C(=O)NCCN2CCOCC2)cc1OC`, the “hERG current change (%, negative = inhibition) at 1uM” value is given as 17.5%.
As for `CCCC(=O)NC(Nc1cccc(C(F)(F)F)c1)C(Cl)(Cl)Cl` (stereo not drawn), the “hERG current change (%, negative = inhibition) at 1uM” value is reported as -5.76%.
Turning to `CCOC(=O)CSc1nc(C)c(C(=O)OCC)s1`, the “hERG current change (%, negative = inhibition) at 1uM” value was 7.79%.
The figure for `COc1ccc(C(=O)Nc2ccc3c(c2)C(=O)N(C)C3=O)cc1OC` is 11.4%.
As for `CSc1ncc(Cl)c(C(=O)Nc2cccnc2)n1`, the “hERG current change (%, negative = inhibition) at 1uM” value is reported as 20.2%.
The figure for `O=c1cc(O)c2sc3nc(C(F)(F)F)c4c(c3c2[nH]1)CCCCC4` is 1.18%; for `O=C(COC(=O)C1CC(=O)N(c2ccc3c(c2)OCCO3)C1)NC1CCCc2ccccc21` (stereo not drawn) it is 3.61%.
Turning to `CCc1ccc(NC(=O)c2cc(-c3ccc(F)cc3)on2)cc1`, the “hERG current change (%, negative = inhibition) at 1uM” value stood at 14.4%.
The figure for `Cc1cc(=O)cc(C)n1-c1ccccc1N` is 14.6%.
In the case of `COc1ccc(OCC(=O)Nc2c3c(nn2C(C)(C)C)CSC3)cc1`, the “hERG current change (%, negative = inhibition) at 1uM” value is on record as 13.5%.
With `CCCOc1ccc(/C=C/C(=O)N2CCOCC2)cc1`, the “hERG current change (%, negative = inhibition) at 1uM” value is on record as 6.84%.
The figure for `C=CCNC(=O)CN(c1ccc(F)c(Cl)c1)S(C)(=O)=O` is 12.1%; for `Cc1c(CC(=O)N[C@@H](C)C(=O)O)c(=O)oc2c(C)c3occ(-c4ccccc4)c3cc12` it is 15.6%; for `Br.O=C(Cn1c(NCCCO)nc2ccccc21)c1ccc(Cl)cc1` it is 4.8%.
The figure for `COC(=O)C1=C(c2c(C)noc2C)C[C@@H]2CC[C@H]1N2C(=O)NCc1ccc(C(F)(F)F)cc1` is 4.74%; for `O=C(O)Cn1cc(/C=c2/sc3nc4ccccc4n3c2=O)c2ccccc21` it is 10.8%; for `O=C(c1ccccc1F)N1CCCC(C(=O)N2CCN(c3ccccc3)CC2)C1` (stereo not drawn) it is 9.84%.
On to `COc1ccc(CNC(=O)c2ccc(CS(=O)Cc3cccc(Cl)c3)o2)cc1` (stereo not drawn), for which the “hERG current change (%, negative = inhibition) at 1uM” value is 6.13%.
The figure for `CCOc1ccccc1/C=C/c1onc(C)c1S(=O)(=O)N1CCC(C(=O)N(CC)CC)CC1` is 4.02%; for `CC(=O)c1ccc([N+](=O)[O-])c(CS(=O)(=O)c2ccc(Cl)cc2)c1` it is 10.8%; for `CCOc1ccc(NC(=O)CN(C)C(=O)c2c(-c3c(F)cccc3Cl)noc2C)cc1OCC` it is 0.132%.
The figure for `CC(Oc1ccc(-c2ccccc2)c(F)c1)c1ccn(S(=O)(=O)c2ccc(Cl)cc2)n1` (stereo not drawn) is 9.07%.
The figure for `COc1cc(NC(=S)N2CCN(C(c3ccccc3)c3ccccc3)CC2)cc(OC)c1` is 5.67%; for `Fc1cccc(-c2n[nH]c(=S)n2-c2ccccc2)c1` it is 14.1%.
As to `CCc1sc(NC(C)=O)nc1-c1ccccc1`, the “hERG current change (%, negative = inhibition) at 1uM” value was -1.78%.
Take `CCCCn1c(N)c(N(CCOC)C(=O)c2oc3ccc(OCC)cc3c2C)c(=O)[nH]c1=O`: the “hERG current change (%, negative = inhibition) at 1uM” value is given as 9.76%.
The figure for `COCC1CCN(C(=O)CC2C(=O)NCCN2Cc2cccc(Oc3ccccc3)c2)CC1` (stereo not drawn) is 9.18%; for `CCN(CC)CC(=O)NN(Cc1ccccc1)c1ccccc1.O=C(O)C(=O)O` it is -20.8%.
In the case of `O=C(O)C(=O)O.O=C(c1ccccc1)c1ccc(OCC(O)CNCc2ccc(F)cc2)cc1` (stereo not drawn), the “hERG current change (%, negative = inhibition) at 1uM” value is listed as -0.143%.
Consider `N#Cc1ccc(C(=O)Nc2cccc3ccccc23)c(F)c1`, for which the “hERG current change (%, negative = inhibition) at 1uM” value is 13.2%.
`COc1cc2c(cc1OC)-c1nnc(-c3ccco3)n1C1(CCCC1)C2`: the “hERG current change (%, negative = inhibition) at 1uM” value is given as 5.39%.
The figure for `COc1ccccc1N1CCN(C2CCCN(C(=O)c3cc(C)oc3C)C2)CC1` (stereo not drawn) is 11.9%.
The figure for `COc1ccc(N2CC(C(=O)OCC(=O)c3ccccc3)CC2=O)cc1` (stereo not drawn) is 3.92%.
`O=C(CN(CC1CCCO1)C(=O)CNS(=O)(=O)c1ccc(F)cc1)NCc1ccc(F)cc1` (stereo not drawn): the “hERG current change (%, negative = inhibition) at 1uM” value came out at 10.8%.
In the case of `Cc1ccc(C)c(NC(=O)CN2C(=O)CNC2=O)c1`, the “hERG current change (%, negative = inhibition) at 1uM” value came to 3.18%.
The figure for `CC(C(=O)Nc1cccc(C#N)c1)N(C)CCOc1ccccc1` (stereo not drawn) is 7.36%.
The figure for `O=c1[nH]c2c(=O)[nH]cnc2nc1-c1ccccc1` is 4.97%; for `COCCNC(=O)CSc1n[nH]c(=O)n1CCc1ccccc1` it is 13.7%; for `CSc1ccc(S(=O)(=O)N2CCC(C(=O)NCc3cccnc3)CC2)cc1` it is -4.49%.
On to `O=[N+]([O-])c1ccc(NCc2ccc(Cl)cc2)c2ccncc12`, for which the “hERG current change (%, negative = inhibition) at 1uM” value was 15%.
The figure for `COc1ccc(OC)c(/C=N/NC(=O)CCc2n[nH]c(=O)[nH]c2=O)c1` is 6.32%; for `CC1=C(C(=O)Nc2ccccc2)C2(CCCCC2)C(C(N)=O)C(=S)N1` (stereo not drawn) it is -0.103%; for `CCCCCCCC(=O)NNC(=O)CC(=O)Nc1ccccc1C(=O)O` it is 8.74%.
The figure for `COc1ccc(S(=O)(=O)NCCSCc2ccccc2C)cc1Br` is 4.03%.
The figure for `CCOC(=O)c1cccc(NC(=O)/C(=C\c2ccccc2)NC(=O)c2ccccc2Cl)c1` is 7.79%.
In the case of `COc1ccc(C2=NS(=O)(=O)N(C)C(C(=O)N(C)Cc3ccccc3)=C2)cc1`, the “hERG current change (%, negative = inhibition) at 1uM” value is -34.9%.
`COC(CNC(=O)c1ccc(-n2c(=S)[nH]c3ccccc3c2=O)cc1)OC`: the “hERG current change (%, negative = inhibition) at 1uM” value is given as 1.5%.
Take `Cc1cc(-c2ccccc2)n2nc(C)c(-c3ccccc3)c2n1`: the “hERG current change (%, negative = inhibition) at 1uM” value turned out to be 3.83%.
As for `N/C(COc1cccc(Cl)c1)=N\NS(=O)(=O)c1ccccc1`, the “hERG current change (%, negative = inhibition) at 1uM” value is 9.81%.
The figure for `CCOC(=O)NC(=S)Nc1ccc(OC)cc1` is 7.86%; for `CC(C)c1ccc(OCc2nnc(SCC(=O)N3CCCCC3)o2)cc1` it is 11.8%; for `O=C(c1ccc(F)cc1)c1cc2ccc(O)cc2oc1=O` it is 9.87%.
The figure for `CCN1C(=O)[C@@H]2C(C(=O)c3cnccn3)=NN[C@@H]2C1=O` is 12.3%; for `COc1ccc(N(CC(=O)NCc2ccco2)C(=O)CNS(=O)(=O)c2ccc(Cl)cc2)cc1` it is 6.58%.
As to `Cc1ccc(CNC(=O)C2CCCN2C(=O)Nc2ccc(C)cc2)cc1` (stereo not drawn), the “hERG current change (%, negative = inhibition) at 1uM” value is 12.4%.
For `Cc1ccc(SCC(=O)NC2CCS(=O)(=O)C2)cc1` (stereo not drawn), the “hERG current change (%, negative = inhibition) at 1uM” value was 13.7%.
The figure for `Cn1c(SCc2ccccc2)nnc1-c1ccc2nonc2c1` is 6.9%; for `Cc1ccc(-n2nc(C(=O)O)cc2-c2ccccc2)cc1` it is 18.9%.
The figure for `COc1ccccc1N1CCN(C(=O)c2cc(-c3ccc(Cl)c(Cl)c3)on2)CC1` is 6.91%.
The figure for `O=C1CC(N2CCSCC2)C(=O)N1c1cccc(Cl)c1` (stereo not drawn) is 12.6%; for `CSc1cccc(NC(=S)N2CCC(c3ccccc3)C2)c1` (stereo not drawn) it is 13.3%.
Take `CC1CCC(NC(=O)c2cnccn2)CC1` (stereo not drawn): the “hERG current change (%, negative = inhibition) at 1uM” value was found to be 14.1%.
The figure for `COc1ccc(C(=O)N/N=C(\C)CC(=O)Nc2cccc(C(F)(F)F)c2)cc1` is 7.5%.
For `COCCNC(=O)CN(C(=O)CCC(=O)Nc1ccccn1)c1ccc(OC)cc1`, the “hERG current change (%, negative = inhibition) at 1uM” value is reported as 15.2%.
The figure for `O=S(=O)(NCC1CCN(S(=O)(=O)c2ccccc2)CC1)c1ccccc1` is 9.17%; for `COc1ccc(C2=NN(C(N)=S)C(c3ccccc3)C2)cc1` (stereo not drawn) it is 6.97%.
For the molecule `Cc1ccccc1OCC(=O)N/N=C/c1ccc(Sc2nc3ccccc3s2)o1`, the “hERG current change (%, negative = inhibition) at 1uM” value amounted to 7.91%.
Regarding `CCc1nc2oc3ccccc3c(=O)c2c(=O)n1-c1ccccc1`, the “hERG current change (%, negative = inhibition) at 1uM” value is -0.853%.
The figure for `COc1ccc(CCn2c(=N)c(C(=O)N3CCN(C)CC3)cc3c(=O)n4ccccc4nc32)cc1` is -2.76%; for `Cc1ccc(S(=O)(=O)N2CCN(C(=O)COC(=O)c3c(C)cc(C)cc3C)CC2)c(C)c1` it is 10.8%; for `COc1ccc(C(=O)/C=C2/C(=O)Nc3ccccc32)cc1` it is 10.6%.
For the molecule `COc1ccccc1NC(=O)Cn1cc(C(=O)C(=O)N2CCOCC2)c2ccccc21`, the “hERG current change (%, negative = inhibition) at 1uM” value came out at 19.5%.
`CCSc1nnc(NC(=O)C2CC(=O)N(Cc3ccccc3)C2)s1` (stereo not drawn): the “hERG current change (%, negative = inhibition) at 1uM” value came out at 10.1%.
In the case of `CSCCC1NC(=O)N(CC(=O)N2N=C(c3ccc(Cl)cc3)CC2c2ccco2)C1=O` (stereo not drawn), the “hERG current change (%, negative = inhibition) at 1uM” value is 2.77%.
Regarding `COC(CNC(=O)C1CC(=O)N(CCc2ccccc2)C1)OC` (stereo not drawn), the “hERG current change (%, negative = inhibition) at 1uM” value is on record as -1.21%.
Turning to `COC(=O)N1C(=O)[C@](c2ccccc2)(C2CCCC2)N1C(=O)OC`, the “hERG current change (%, negative = inhibition) at 1uM” value is given as 19.3%.
The figure for `CN(Cc1cnn(C)c1)C(=O)CC1C(=O)NCCN1Cc1cccc(Oc2ccccc2)c1` (stereo not drawn) is 15.6%.
